Data as given in the supplement of paper PMC8728848.
The other results are listed elsewhere or left out.

Experiments:
Test in all cases: glycan array binding signal (z-score within array); higher = stronger binding
Settings in all cases: glycan notation: IUPAC condensed, linker removed
[1] = biological target: GlcNAc(b1-2)[GlcNAc(b1-6)]Man(a1-6)[GlcNAc(b1-2)Man(a1-3)][GlcNAc(b1-4)]Man(b1-4)GlcNAc(b1-4)GlcNAc
Method in brief: (§1)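 The binding signal is a Z-score computed within each array. Data were drawn from 3228 arrays in the Consortium for Functional Glycomics database, restricted to those with a known protein sequence. Scores were averaged over arrays of the same protein sequence at different concentrations or buffers, and over linkers, and negative values can be taken as non-binding.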

[2] = biological target: GlcNAc(b1-3)Gal
Method in brief: as §1

[3] = biological target: GlcNAc(b1-3)Gal(b1-3)GalNAc
Method in brief: as §1

[4] = biological target: GlcNAc(b1-3)Gal(b1-4)Glc
Method in brief: as §1

[5] = biological target: GlcNAc(b1-3)Gal(b1-4)GlcNAc
Method in brief: as §1

[6] = biological target: GlcNAc(b1-3)Gal(b1-4)GlcNAc(b1-3)Gal(b1-4)GlcNAc
Method in brief: as §1

[7] = biological target: GlcNAc(b1-3)GalNAc
Method in brief: as §1

[8] = biological target: GlcNAc(b1-3)Man
Method in brief: as §1

[9] = biological target: GlcNAc(b1-3)[GlcNAc(b1-4)][GlcNAc(b1-6)]GlcNAc
Method in brief: as §1

[10] = biological target: GlcNAc(b1-3)[GlcNAc(b1-6)]Gal(b1-4)GlcNAc
Method in brief: as §1

[11] = biological target: GlcNAc(b1-3)[GlcNAc(b1-6)]GalNAc
Method in brief: as §1

[12] = biological target: GlcNAc(b1-4)Gal(b1-4)GlcNAc
Method in brief: as §1

[13] = biological target: GlcNAc(b1-4)GlcNAc
Method in brief: as §1

[14] = biological target: GlcNAc(b1-4)GlcNAc(b1-4)GlcNAc
Method in brief: as §1

[15] = biological target: GlcNAc(b1-4)GlcNAc(b1-4)GlcNAc(b1-4)GlcNAc(b1-4)GlcNAc
Method in brief: as §1

[16] = biological target: GlcNAc(b1-4)GlcNAc(b1-4)GlcNAc(b1-4)GlcNAc(b1-4)GlcNAc(b1-4)GlcNAc
Method in brief: as §1

[17] = biological target: GlcNAc(b1-4)[GlcNAc(b1-6)]GalNAc
Method in brief: as §1

[18] = biological target: GlcNAc(b1-6)Gal(b1-4)GlcNAc
Method in brief: as §1

[19] = biological target: GlcNAc(b1-6)GalNAc
Method in brief: as §1

[20] = biological target: GlcNAc3Prop(b1-4)GlcNAc
Method in brief: as §1

[21] = biological target: GlcNAc6S(b1-3)Gal(b1-4)GlcNAc
Method in brief: as §1

[22] = biological target: Kdn(a2-3)Gal(b1-3)GalNAc
Method in brief: as §1

[23] = biological target: Kdn(a2-3)Gal(b1-3)GlcNAc
Method in brief: as §1

[24] = biological target: Kdn(a2-3)Gal(b1-4)Glc
Method in brief: as §1

[25] = biological target: Kdn(a2-3)Gal(b1-4)GlcNAc
Method in brief: as §1

[26] = biological target: Kdn(a2-3)Gal(b1-4)[Fuc(a1-3)]GlcNAc
Method in brief: as §1

[27] = biological target: Kdn(a2-6)Gal(b1-4)GlcNAc
Method in brief: as §1

[28] = biological target: Man(a1-2)Man(a1-2)Man(a1-3)Man
Method in brief: as §1

[29] = biological target: Man(a1-2)Man(a1-2)Man(a1-6)[Man(a1-3)]Man
Method in brief: as §1

[30] = biological target: Man(a1-2)Man(a1-3)Man
Method in brief: as §1

[31] = biological target: Man(a1-2)Man(a1-3)[Man(a1-2)Man(a1-6)]Man
Method in brief: as §1

[32] = biological target: Man(a1-2)Man(a1-3)[Man(a1-2)Man(a1-6)]Man(a1-6)[Man(a1-2)Man(a1-2)Man(a1-3)]Man
Method in brief: as §1

[33] = biological target: Man(a1-2)Man(a1-3)[Man(a1-2)Man(a1-6)]Man(a1-6)[Man(a1-2)Man(a1-2)Man(a1-3)]Man(b1-4)GlcNAc(b1-4)GlcNAc
Method in brief: as §1

[34] = biological target: Man(a1-2)Man(a1-3)[Man(a1-6)]Man(a1-6)[Man(a1-2)Man(a1-3)]Man(b1-4)GlcNAc(b1-4)GlcNAc
Method in brief: as §1

[35] = biological target: Man(a1-2)Man(a1-6)[Man(a1-3)]Man(a1-6)[Man(a1-2)Man(a1-2)Man(a1-3)]Man
Method in brief: as §1

[36] = biological target: Man(a1-2)Man(a1-6)[Man(a1-3)]Man(a1-6)[Man(a1-2)Man(a1-2)Man(a1-3)]Man(b1-4)GlcNAc(b1-4)GlcNAc
Method in brief: as §1

[37] = biological target: Man(a1-3)[Man(a1-6)]Man
Method in brief: as §1

[38] = biological target: Man(a1-3)[Man(a1-6)]Man(a1-6)[Man(a1-2)Man(a1-3)]Man(b1-4)GlcNAc(b1-4)GlcNAc
Method in brief: as §1

[39] = biological target: Man(a1-3)[Man(a1-6)]Man(a1-6)[Man(a1-3)]Man
Method in brief: as §1

[40] = biological target: Man(a1-3)[Man(a1-6)]Man(a1-6)[Man(a1-3)]Man(b1-4)GlcNAc(b1-4)GlcNAc
Method in brief: as §1

[41] = biological target: Man(a1-3)[Man(a1-6)]Man(b1-4)GlcNAc(b1-4)GlcNAc
Method in brief: as §1

[42] = biological target: Man(a1-3)[Man(a1-6)]Man(b1-4)GlcNAc(b1-4)[Fuc(a1-6)]GlcNAc
Method in brief: as §1

[43] = biological target: Man(a1-6)Man
Method in brief: as §1

[44] = biological target: Man(b1-4)GlcNAc
Method in brief: as §1

[45] = biological target: Neu5Ac(a2-3)Gal
Method in brief: as §1

B1: SpnanA (Streptococcus pneumoniae), P62575 (protein)
chain: MVIEKEDVETNASNGQRVDLSSELDKLKKLENATVHMEFKPDAKAPAFYNLFSVSSATKKDEYFTMAVYNNTATLEGRGSDGKQFYNNYNDAPLKVKPGQWNSVTFTVEKPTAELPKGRVRLYVNGVLSRTSLRSGNFIKDMPDVTHVQIGATKRANNTVWGSNLQIRNLTVYNRALTPEEVQKRS
Question: Which “glycan array binding signal (z-score)” value [1] does the source give for B1 here?
Answer: Its value is -0.328.

Question: What about the “glycan array binding signal (z-score)” value [2] of the same binder?
Answer: Its value is -0.304.

Question: What about the “glycan array binding signal (z-score)” value [3] of the same binder?
Answer: The value was -0.164.

Question: And the “glycan array binding signal (z-score)” value [4]?
Answer: Its value is -0.294.

Question: What about the “glycan array binding signal (z-score)” value [5] of the same binder?
Answer: Its value is -0.22.

Question: And the “glycan array binding signal (z-score)” value [6]?
Answer: The value was -0.24.

Question: And the “glycan array binding signal (z-score)” value [7]?
Answer: Its value is -0.199.

Question: And the “glycan array binding signal (z-score)” value [8]?
Answer: The value was -0.158.

Question: What about the “glycan array binding signal (z-score)” value [9] of the same binder?
Answer: Its value is -0.274.

Question: And the “glycan array binding signal (z-score)” value [10]?
Answer: The value was -0.211.

Question: And the “glycan array binding signal (z-score)” value [11]?
Answer: Its value is -0.222.

Question: And the “glycan array binding signal (z-score)” value [12]?
Answer: The value was -0.275.

Question: What about the “glycan array binding signal (z-score)” value [13] of the same binder?
Answer: Its value is -0.179.

Question: What about the “glycan array binding signal (z-score)” value [14] of the same binder?
Answer: The value was -0.223.

Question: And the “glycan array binding signal (z-score)” value [15]?
Answer: Its value is -0.265.

Question: What about the “glycan array binding signal (z-score)” value [16] of the same binder?
Answer: The value was -0.247.

Question: And the “glycan array binding signal (z-score)” value [17]?
Answer: The value was -0.279.

Question: And the “glycan array binding signal (z-score)” value [18]?
Answer: Its value is -0.263.

Question: What about the “glycan array binding signal (z-score)” value [19] of the same binder?
Answer: Its value is -0.295.

Question: And the “glycan array binding signal (z-score)” value [20]?
Answer: The value was -0.256.

Question: And the “glycan array binding signal (z-score)” value [21]?
Answer: Its value is 0.11.

Question: And the “glycan array binding signal (z-score)” value [22]?
Answer: Its value is -0.266.

Question: And the “glycan array binding signal (z-score)” value [23]?
Answer: Its value is -0.261.

Question: And the “glycan array binding signal (z-score)” value [24]?
Answer: Its value is -0.204.

Question: And the “glycan array binding signal (z-score)” value [25]?
Answer: Its value is -0.287.

Question: And the “glycan array binding signal (z-score)” value [26]?
Answer: The value was -0.23.

Question: What about the “glycan array binding signal (z-score)” value [27] of the same binder?
Answer: The value was -0.273.

Question: And the “glycan array binding signal (z-score)” value [28]?
Answer: The value was -0.256.

Question: What about the “glycan array binding signal (z-score)” value [29] of the same binder?
Answer: Its value is -0.182.

Question: What about the “glycan array binding signal (z-score)” value [30] of the same binder?
Answer: The value was -0.228.

Question: What about the “glycan array binding signal (z-score)” value [31] of the same binder?
Answer: The value was -0.273.

Question: What about the “glycan array binding signal (z-score)” value [32] of the same binder?
Answer: The value was -0.313.

Question: What about the “glycan array binding signal (z-score)” value [33] of the same binder?
Answer: Its value is -0.239.

Question: What about the “glycan array binding signal (z-score)” value [34] of the same binder?
Answer: Its value is -0.256.

Question: And the “glycan array binding signal (z-score)” value [35]?
Answer: Its value is -0.27.

Question: What about the “glycan array binding signal (z-score)” value [36] of the same binder?
Answer: Its value is -0.257.

Question: And the “glycan array binding signal (z-score)” value [37]?
Answer: The value was -0.248.

Question: What about the “glycan array binding signal (z-score)” value [38] of the same binder?
Answer: The value was -0.212.

Question: What about the “glycan array binding signal (z-score)” value [39] of the same binder?
Answer: Its value is -0.261.

Question: And the “glycan array binding signal (z-score)” value [40]?
Answer: The value was -0.271.

Question: What about the “glycan array binding signal (z-score)” value [41] of the same binder?
Answer: Its value is -0.292.

Question: What about the “glycan array binding signal (z-score)” value [42] of the same binder?
Answer: Its value is 0.062.

Question: What about the “glycan array binding signal (z-score)” value [43] of the same binder?
Answer: Its value is -0.265.

Question: What about the “glycan array binding signal (z-score)” value [44] of the same binder?
Answer: The value was -0.307.

Question: And the “glycan array binding signal (z-score)” value [45]?
Answer: The value was 1.62.
